Measured values from PubChem BioAssay AID686978 (National Center for Advancing Translational Sciences (NCATS), 2013).
In all, about 420,000 compounds went through this assay and about 64,000 (15%) were called active. This list was built around the results that the source calls inconclusive (neither active nor inactive); the mix of calls is not that of the screen. The call rests on the fitted dose curve; in most records, active means well fitted inhibition curve with a large enough effect; inconclusive means small, poorly fitted or top-dose-only effect; inactive means flat fitted curve, though single readings scatter. No potency is given beside an inconclusive call; the fits are too rough.

assay: qHTS for Inhibitors of human tyrosyl-DNA phosphodiesterase 1 (TDP1): qHTS in cells in absence of CPT; conditions: DT40 Tdp1-/- hTDP1 cells, no CPT, ATP luminescence, 48 h; activity change, negative = growth inhibition: at 46.2 µM (top of the series); further: nearly all actives have a fitted effect of over 55% in size
Summary of the method: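 Luminescent ATP content (CellTiter-Glo) served as the growth readout. Knockout chicken DT40 cells expressing human TDP1 were exposed to compounds without camptothecin for a minimum 48 hr at 37 °C.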
On the % scale 0 is the no-effect control and ±100 the full control effect; potency means the concentration at half of the fitted maximal effect; tags describe the fitted curve by direction and shape.

Structure (SMILES)	Potency	activity change, negative = growth inhibition
COc1cc(Cl)c(C)cc1Nc1c2c(nc3ccccc13)CCC2	active: 1.46 µM	
Cc1cc(-c2csc(NC(=O)c3cc4ccccc4o3)n2)c(C)n1C	inconclusive [inhibitor, single point]	
CCc1cccc(CC)c1NC(=O)c1c(C)oc2ccc(O)c(CN3CCOCC3)c12		inconclusive: -31.9% [inhibitor]
Cc1cccc(/C(N)=N/OC(=O)COc2ccc(Cl)cc2)c1	inconclusive [inhibitor, single point]	
COc1ccc(CNC(=O)c2ccc3c(c2)NC(=O)C(CS(=O)(=O)Cc2ccccc2Cl)N3)cc1 (stereo unspecified)	inconclusive [inhibitor, partial curve]	
CCCCCCCCn1c(N2CCN(c3cccc(Cl)c3)CC2)nc2c1c(=O)[nH]c(=O)n2C	inconclusive [inhibitor, single point]	
O=C(c1ccc2c(c1)N(Cc1cccc(Cl)c1)C(=O)c1ccccc1S2(=O)=O)N1CCC(Cc2ccccc2)CC1	active: 4.11 µM	
CCC(=O)N1CCC2(CC1)Oc1ccc(F)cc1C(=O)C21CC(c2ccc(Cl)cc2)=NO1 (stereo unspecified)	active: 25.9 µM	
CCOc1ccccc1CNC(=O)CN1C(=O)CCn2nc(-c3cn(C)c4ccccc34)cc21	inconclusive [inhibitor, single point]	
O=C(CCSCCC(=O)NCc1ccco1)NCc1ccco1	inconclusive [inhibitor, partial curve, poor fit]	
CN1C(=O)CSC1=NC12CC3CC(CC(C3)C1)C2	inconclusive [inhibitor, partial curve]	
COc1ccccc1NC(=O)N[C@@H](Cc1c[nH]c2ccccc12)C(=O)NN	inconclusive [inhibitor, partial curve, poor fit]	
O=C(NCCc1cccnc1)c1cc(COc2ccc(F)cc2Cl)on1	inconclusive [inhibitor, partial curve]	
O=C(c1ccncc1)N1CCC2(CCCN(c3ccc(-c4ccccc4)cc3)C2)CC1	inconclusive [inhibitor, single point]	
COc1ccccc1C1=NOC(Cn2c(NCC3CCCO3)nc3c2c(=O)n(C)c(=O)n3C)C1 (stereo unspecified)	inconclusive [inhibitor, partial curve, poor fit]	
CCCCNS(=O)(=O)c1ccc2nc(SCC(=O)Nc3sccc3C#N)[nH]c2c1	inconclusive [inhibitor, single point]	
CN(Cc1ccccc1)C(=O)C(=O)c1c[nH]c2ccccc12	inconclusive [inhibitor, single point]	
CC(C)CCOc1ccc(Oc2nc(N(C)C)nc(N(C)C)n2)nn1	inconclusive [inhibitor, single point]	
COCOCCn1cc(CN2CCS(=O)(=O)N(Cc3ccc(-c4ccc(C)cc4)cc3)C(C)C2=O)nn1 (stereo unspecified)	active: 14.6 µM	
CCOc1ccccc1N(C)C(=O)Cn1cnc2onc(-c3ccc(F)cc3)c2c1=O	active: 20.6 µM	
CC(=O)NN1C(=O)c2ccccc2NC1c1ccccc1F (stereo unspecified)		inactive: 5.23%
CSc1cccc(N2C(=O)N(CC(=O)NCc3ccccc3Cl)c3ccccc3S2(=O)=O)c1	active: 16.4 µM	
O=C(NCCC1CCCCN1S(=O)(=O)c1ccccc1)C(=O)NCc1ccccc1 (stereo unspecified)	inconclusive [inhibitor, single point]	
Cc1ccc(OCCCN2C(=O)C(=O)c3cccc(C)c32)cc1	active: 14.6 µM	

Structure (SMILES)	Potency	activity change, negative = growth inhibition
Cc1ccc(CC(=O)NC2CCN(C)CC2)cc1	inconclusive [inhibitor, single point]	
O=C(Nc1cc(-c2nc3ccccc3s2)ccc1Cl)c1ccc2c(c1)OCO2	inconclusive [inhibitor, single point]	
COc1cc(/C=C/C(=O)N2CCCC2)cc(OC)c1OC		inactive: 3.24%
CC(C)C(C)NC(=O)COc1ccc(-c2ccccc2)cc1 (stereo unspecified)	active: 20.6 µM	
C/C(=N/Oc1nc(C)cc(C)n1)c1ccc(Cl)cc1Cl	inconclusive [inhibitor, single point]	
Cc1ccccc1C1C(C#N)=C2N=C(N)c3c(sc4c3CCCCC4)N2C2=C1C(=O)CC(C)(C)C2 (stereo unspecified)	inconclusive [inhibitor, single point]	
Cc1nc(N2CCN(S(=O)(=O)c3cccs3)CC2)c2c(-c3ccccc3)c(C)sc2n1	active: 13 µM	
CC1=NN(c2ccc(C)cc2)C(=O)/C1=C\C=C\c1ccccc1	active: 9.2 µM	
Cc1cc(=O)n2c(C(=O)Nc3ccc(F)c(Cl)c3)c(C(=O)Nc3cccc(C)c3C)sc2n1	inconclusive [inhibitor, single point]	
Cc1ccc(NC(=O)C(Cc2ccccc2)n2cccc2)c(C)c1 (stereo unspecified)	active: 14.6 µM	
CC(=O)N1c2ccccc2C2(C)C(C1(C)C)C2(Cl)Cl (stereo unspecified)	inconclusive [inhibitor, single point]	
COc1ccc(-n2c3c(c(=O)[nH]c2=O)C(NS(=O)(=O)c2ccc(Cl)cc2)(C(F)(F)F)C(=O)N3)cc1 (stereo unspecified)		inactive: -4.83%
CCOC(=O)c1c(NC(=O)c2ccccc2Br)sc2c1CCc1ccccc1-2	active: 18.4 µM	
Cc1cc(C)n(/N=C/c2cc([N+](=O)[O-])ccc2O)c(=O)c1	inconclusive [inhibitor, single point]	
COc1ccc(CNc2nc(-c3cccc(C#N)c3)nc3ccccc23)c(OC)c1	inconclusive [inhibitor, single point]	
C=CCN(c1ccccc1)S(=O)(=O)c1cccc(C(=O)NC2CCN(Cc3ccccc3)CC2)c1	active: 18.4 µM	
CCC1C(=O)Nc2nc(-c3ccccc3)c(-c3ccccc3)n2N=C1C (stereo unspecified)	active: 23.1 µM	
Cc1noc(C)c1COc1ccc(C(=O)OCC(=O)NC2CCCCC2C)cc1 (stereo unspecified)		inconclusive: -30.9% [inhibitor]
CC1(c2nnc(-c3cccc(Cl)c3)o2)CC(c2ccccc2)=NO1 (stereo unspecified)		inactive: -21.1%
CCOc1ccccc1CN1CCNC(=O)C1CC(=O)NC1CCCCCCC1 (stereo unspecified)	inconclusive [inhibitor, single point]	
CCOc1ccc(N2C(=O)C3CCCN3C2=S)cc1 (stereo unspecified)		inactive: -11%
O=C(NCc1ccc2c(c1)OCO2)C1CCC(=O)N1C1CCCCC1 (stereo unspecified)		inactive: 2.1%
O=C(COc1ccccc1[N+](=O)[O-])N/N=C/c1cccc(OC(=O)c2ccc3c(c2)OCO3)c1	inconclusive [inhibitor, single point]	
COc1ccc(/C=N/NC(=O)c2sc3nc(C)cc(C)c3c2N)cc1	inconclusive [inhibitor, partial curve]	

Structure (SMILES)	Potency	activity change, negative = growth inhibition
CCOC(=O)C1(C)NC(c2ccco2)C2C(=O)N(CC)C(=O)C21 (stereo unspecified)		inactive: 5.37%
CC1=C(C(=O)Nc2cc(C(=O)N3CCN(c4cccc(C)c4)C(C)C3)ccc2C)SCCO1 (stereo unspecified)	inconclusive [inhibitor, single point]	
COc1ccc(NC(=O)CN(C)S(=O)(=O)c2ccc3c(c2)CCCN3C(C)=O)cc1Cl	active: 20.6 µM	
Cc1ccc(NC(=O)CSc2nc(-c3cccs3)cc(C(F)(F)F)n2)cc1C	active: 5.8 µM	
C=CCN(c1ccc(C(=O)Nc2cc(C)cc(C)c2)cc1)S(C)(=O)=O		inactive: -24.1%
CN(C(=O)Cc1c[nH]c2ccccc12)C(C(=O)Nc1ccc2c(c1)OCO2)c1ccccc1 (stereo unspecified)	inconclusive [inhibitor, single point]	
Oc1c(CN2CCN(c3ccccc3)CC2)cc(Br)c2cccnc12	active: 3.26 µM	
Cn1cccc1Cc1nnc(SCC(=O)Nc2ccc(F)cc2)n1CCc1ccccc1	inconclusive [inhibitor, single point]	
Nc1[nH]c(=O)[nH]c(=O)c1N=Cc1ccccc1		inactive: -4%
O=[N+]([O-])c1ccc(N2CCNCC2)cc1NCc1cccnc1	inconclusive [inhibitor, single point]	
CC(=O)N1CCCc2cc(S(=O)(=O)NC(C(=O)NCc3ccc(C)cc3)C(C)C)ccc21 (stereo unspecified)	inconclusive [inhibitor, partial curve]	
CN(C1CCCCC1)S(=O)(=O)CCNC(=O)c1ccccc1		inactive: 3.83%
COC(=O)C1CCN(C(=O)CSc2nc3ccc(OC)cc3[nH]2)CC1		inactive: -17.5%
Cc1cc2nc(C)n(CCCNC(=O)Nc3ccc(F)cc3)c2cc1C	active: 23.1 µM	
COc1ccc(C2=NS(=O)(=O)N(C)C(C(=O)NC3CCCC3)=C2)cc1	inconclusive [inhibitor, single point]	
O=C(COC(=O)c1cc(Cl)ccc1O)Nc1cc(C(F)(F)F)ccc1N1CCOCC1		inactive: -27.7%
CCOC(=O)c1c(S(=O)(=O)NCC(=O)N2CCN(c3ccc(OC)cc3)CC2)c(C)n(C)c1C		inactive: 15.3%
COc1cccc(OCCn2cc(C(=O)c3ccco3)c3ccccc32)c1	active: 16.4 µM	
COc1ccc(-c2cc(=O)c3cc(F)ccc3[nH]2)cc1	inconclusive [inhibitor, single point]	
COC(=O)Cc1ccc(NC(=S)N2CCN(c3ccc(F)cc3)CC2)cc1	active: 5.17 µM	
CCCCSCCCNC(=O)c1cc(-c2cccnc2)nc2ccc(S(=O)(=O)N3CCC(C)CC3)cc12		inactive: -17.3%
CCn1cc(CN2CCN(CCC(C)C)C(CCO)C2)c2ccccc21 (stereo unspecified)	inconclusive [inhibitor, single point]	
COc1ccccc1C(=O)N/C(=C/c1ccc(Br)cc1)C(=O)N1CCCC1	active: 20.6 µM	
